Data reported in PubChem BioAssay AID485344 (National Center for Advancing Translational Sciences (NCATS), 2010).
The campaign covered roughly 340,000 compounds. About 6,900 (2%) were called active. Rule as the data show it: active = inhibition above about 30%; inactive = below that, where a call was filed. The entries are a selection whose mix differs from that of the whole data set. Where no call is shown, the source filed none.

target: D(2) dopamine receptor (Homo sapiens) (UniProt P14416); assay: HTS Assay for Allosteric Antagonists of the Human D2 Dopamine Receptor: Primary Screen for Antagonists; conditions: HEK293 TREx D2 cells, calcium flux, dopamine EC80; at 10 µM; stronger effect = higher value; also: 0% is about no effect
In short: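 Antagonism is scored as inhibition of an EC80 dopamine-evoked calcium signal in a force-coupled, tetracycline-inducible HEK293 T-REx D2 line, with compound present 180 s before agonist.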

Sequence of UniProt P14416 (P14416 whole entry, looked up): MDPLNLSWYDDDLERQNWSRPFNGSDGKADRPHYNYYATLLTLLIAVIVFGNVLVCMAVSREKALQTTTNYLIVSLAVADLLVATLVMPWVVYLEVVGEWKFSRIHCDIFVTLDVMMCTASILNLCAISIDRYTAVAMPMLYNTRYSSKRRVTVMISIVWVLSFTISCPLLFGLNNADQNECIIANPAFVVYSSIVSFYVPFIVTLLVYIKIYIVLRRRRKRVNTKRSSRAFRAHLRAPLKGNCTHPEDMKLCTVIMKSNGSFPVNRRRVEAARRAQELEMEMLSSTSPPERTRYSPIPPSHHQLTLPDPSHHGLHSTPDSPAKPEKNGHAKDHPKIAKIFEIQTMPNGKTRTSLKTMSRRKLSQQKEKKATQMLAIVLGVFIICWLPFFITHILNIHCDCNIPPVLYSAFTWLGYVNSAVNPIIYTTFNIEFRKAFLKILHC

Going from `CCOc1ccccc1NC(=O)C(=O)NCC(c1cccnc1)N1CCN(c2ccccc2)CC1` (centres undefined) to `O=C(CSc1nc(-c2ccccc2)no1)N1CCN(c2ccc(F)cc2)CC1`, the inhibition rises from -5.76% to -3.38%.

Going from `COC(=O)c1c(SC)nc2ccccc2c1OCc1cc(C)ccc1C` to `Cc1ccc(NC(=O)c2cc(-c3cccs3)nc3ccccc23)c(C)c1`, the inhibition falls from 14.2% to -0.394%.

First: Cc1ccc(CNC(=O)c2ccc(NC(=O)c3nsc4ccccc34)cc2)cc1
Second: O=C(Nc1ccc2nc(SCC(=O)N3CCc4ccccc43)sc2c1)c1ccc(Cl)cc1
The inhibition of the first is higher: -2.4% for the first, -22.8% for the second.

Compared with `CCCOc1ccc(CNC(=O)c2cc3oc4ccccc4c3n2C)cc1`, `CCCOc1ccc(Cn2c(=O)sc3ccccc32)cc1` is lower in inhibition: -1.53% for the first, -3.63% for the second.

Compared with `O=C(CSc1nc(-c2cccs2)cc(C(F)(F)F)n1)Nc1ccccc1Cl`, `Cc1cccc(-n2ccnc2SCC(=O)Nc2cc(C(F)(F)F)ccc2Cl)c1` is lower in inhibition: -0.688% for the first, -20.7% for the second.

Compared with `CCC(=O)C1=C(c2ccccc2)N(C(=O)CC)n2c(nnc2C2CCCCC2)S1`, `O=C(CC(=O)Nc1ccccc1F)Nc1ccc2nc3n(c(=O)c2c1)CCCCC3` is higher in inhibition: -22.8% for the first, 9.4% for the second.

Compared with `O=C(Nc1ccccc1[N+](=O)[O-])c1csnn1`, `CCn1c(C(=O)NCc2ccccc2)cc2sc(Cl)cc21` is lower in inhibition: -0.586% for the first, -6.07% for the second.

Compared with `Cc1ccc(C)c(Oc2c(C(F)(F)F)oc3c(CN4CCN(C)CC4)c(O)ccc3c2=O)c1`, `Cc1ccc(N2CCN(C(=O)Nc3cn(CC(C)C)c(=O)c4ccccc34)CC2)c(C)c1` is higher in inhibition: -3.44% for the first, -2.06% for the second.

Compared with `COc1ccc(C)cc1NC(=O)Cc1ccc(NC(=O)N2CCCCc3ccccc32)cc1`, `CCOc1ccc(C(CC(=O)Nc2ccc(C(=O)OC)cc2)N2Cc3ccccc3C2=O)cc1OC` (centres undefined) is lower in inhibition: 9.02% for the first, 5.28% for the second.

Going from `Cc1ccc2nc(NCCc3ccc(Cl)cc3)c3nncn3c2c1` to `CCCCOC(=O)c1ccc(Nc2nc3ccc(C)cc3n3cnnc23)cc1`, the inhibition falls from 14.9% to -10.6%.

Going from `CC(C)c1ccc(Nc2c(-c3ccsc3)nc3ccc(Cl)cn23)cc1` to `Cc1ccccc1NC(=O)CSc1nc2ccc(NC(=O)c3ccco3)cc2s1`, the inhibition rises from -4.6% to 18.1%.

First: CCn1cc(C(=O)NCc2ccccc2Cl)c(=O)c2cc(S(=O)(=O)N3CCOCC3)ccc21
Second: Cc1ccc(CCNC(=O)C2CCCN(S(=O)(=O)c3ccc4c(c3)oc(=O)n4C)C2)cc1 (centres undefined)
The inhibition of the first is higher: 13.9% for the first, -11.9% for the second.

First: CCCCC(=O)Nc1cccc(-c2nc3ccccc3s2)c1
Second: CCCCCNc1nc2c(-c3ccccc3)nnn2c2ccccc12
The inhibition of the first is higher: 8.24% for the first, -10.9% for the second.

Compared with `COc1ccc(CCNC(=O)C(=O)Nc2ccc(C)c(C)c2)cc1OC`, `COc1ccc(C2=NS(=O)(=O)N(C)C(C(=O)NC(C)c3ccccc3)=C2)cc1OC` (centres undefined) is lower in inhibition: 27.9% for the first, 22.9% for the second.

Going from `CCCCN(C)CC(O)Cn1cc(/C=C/C(=O)c2ccc(OCC)cc2)c2ccccc21` (centres undefined) to `CCOc1ccccc1NC(=O)CCS(=O)(=O)c1ccc(OC)cc1`, the inhibition rises from -2.1% to 2.6%.

Compared with `CCOC(=O)c1[nH]c(C)c(C(=O)NCCc2ccccc2)c1C`, `COc1ccc(C(=O)NCCc2nc3ccccc3[nH]2)cc1` is lower in inhibition: 21% for the first, 1.01% for the second.

Going from `CN(c1ccc(Cl)cc1)S(=O)(=O)c1nnc(NC(=O)c2ccco2)s1` to `CN(C)c1ccc(CNS(=O)(=O)c2csc(C(N)=O)c2)cc1`, the inhibition rises from -28.2% to -10.8%.

Compared with `CCc1ccc(NC(=O)c2cc(CN3CCOCC3)on2)cc1`, `COc1cccc(NC(=O)c2oc3ccc(S(=O)(=O)N4CCC5(CC4)OCCO5)cc3c2C)c1` is lower in inhibition: 4.52% for the first, 3.02% for the second.

Going from `O=C(CCn1c(=O)c2ccccc2n(Cc2ccc(Cl)cc2)c1=O)NCc1ccc2c(c1)OCO2` to `COc1ccccc1NC(=O)Cn1c(=O)n(Cc2nc(C)no2)c(=O)c2cc3c(cc21)OCO3`, the inhibition rises from -10.1% to 9.38%.

Going from `Cc1ccc(CNC(=O)c2ccc(CSCc3c(F)cccc3Cl)o2)cc1` to `O=C(NCc1ccc(F)cc1Cl)c1ccc(CSCc2ccccc2Cl)o1`, the inhibition rises from 4.02% to 7.12%.

Compared with `CCOc1ccc(/C=C/c2nc(C#N)c(N3CCCCCC3)o2)cc1`, `Clc1ccc(-c2noc3ncnc(N4CCCCC4)c23)cc1` is lower in inhibition: 2.97% for the first, -0.725% for the second.

Going from `Cc1cc(C)n2nc(CNS(=O)(=O)c3ccc(F)cc3)nc2n1` to `O=C(COc1ccc(F)cc1)OCc1cc(=O)n2nc(C3CC3)sc2n1`, the inhibition falls from 10.3% to 2.71%.

Compared with `COc1ccccc1NC(=O)N1CCOc2ccccc21`, `COc1ccccc1NC(=O)c1c(NC(=O)c2cccs2)sc2c1CCC(C(C)(C)C)C2` (centres undefined) is lower in inhibition: 2.81% for the first, -16.6% for the second.

Compared with `CCCN(CCC)CCNC(=O)Cn1cnc2sc(C)c(S(=O)(=O)N3CCN(c4ccccc4OC)CC3)c2c1=O`, `Cc1cccc(N2CCN(C(=O)c3ccc4c(c3)N(Cc3cccc(Cl)c3)C(=O)c3ccccc3S4=O)CC2)c1C` (centres undefined) is higher in inhibition: -10.8% for the first, 3.51% for the second.

First: COC(=O)c1cc2oc3ccccc3c2n1CC(=O)Nc1ccc(C)cc1Cl
Second: CCc1ccccc1NC(=O)COC(=O)c1cn(CC)c2nc(C)ccc2c1=O
The inhibition of the first is higher: 8.37% for the first, 1.89% for the second.

First: COc1cccc(CNC(=O)c2ccc(CN3CC(=O)N4CCCCC4C3=O)cc2)c1 (centres undefined)
Second: CCc1ccc(C(=O)c2cn(Cc3ccccc3)c3cc(OC)c(OC)cc3c2=O)cc1
The inhibition of the first is higher: 10.6% for the first, -15.1% for the second.

Going from `CC(C)CCn1c(=O)c2sccc2n2c(CCCC(=O)Nc3ccc(F)c(Cl)c3)nnc12` to `Cn1c(=O)c2c(nc(NCc3ccccc3)n2Cc2ccc(Cl)c(Cl)c2)n(C)c1=O`, the inhibition rises from -2.76% to 1.03%.

Going from `Cc1ccc(-c2nc(SCC(=O)Nc3cc(C)on3)c3c(=O)n(C)c(=O)n(C)c3n2)cc1` to `COc1ccc(-c2noc(CSc3nnc(C)n3-c3ccc(C)cc3)n2)cc1`, the inhibition falls from 14.6% to -8.25%.

Compared with `CCc1ccc(OC(=O)c2sc3ncn(Cc4cccc(F)c4)c(=O)c3c2C)cc1`, `CCc1ccc(-n2nc(C)c3c(C)cc(=O)n(CC(=O)N(CC)Cc4ccccc4)c32)cc1` is higher in inhibition: -9.01% for the first, 6.23% for the second.

Going from `O=C(Nc1cc(Cl)ccc1O)c1cc2nc(-c3ccc4c(c3)OCO4)cc(C(F)(F)F)n2n1` to `COc1cccc(NC(=O)Nc2cc(-c3cn4cccnc4n3)ccc2OC)c1`, the inhibition falls from 10.6% to -3.06%.

Compared with `Oc1c(C(c2ccc(Cl)cc2Cl)N2CCCC2)sc2nc(-c3ccco3)nn12` (centres undefined), `Cc1cccc(NC(=O)C2CCN(S(=O)(=O)c3c(C)noc3/C=C/c3ccco3)CC2)c1C` is higher in inhibition: -12.5% for the first, -3.34% for the second.

Compared with `CC(C)(C)c1ccc(OCc2cc(=O)n3c4c(sc3n2)CCCC4)cc1`, `CC1CCc2nc(NC(=O)Cc3ccc(Cl)cc3)sc2C1` (centres undefined) is lower in inhibition: 6.64% for the first, -18.8% for the second.

Going from `COc1ccc(N2CC(C(=O)Nc3ccccc3-c3nc(-c4ccc(C)cc4)no3)CC2=O)cc1` (centres undefined) to `COc1cccc(N2C(=O)CSC23C(=O)N(Cc2ccccc2F)c2ccccc23)c1` (centres undefined), the inhibition rises from -2.01% to 2.19%.

First: CCCSc1nc2c(c(=O)[nH]1)C(c1ccc(O)c(OCC)c1)CC(=O)N2 (centres undefined)
Second: CCOc1cc(Cl)c(S(=O)(=O)n2cc(C)nc2CC)cc1Cl
The inhibition of the first is higher: 11% for the first, -5.09% for the second.

Compared with `O=C(NCC(c1ccco1)S(=O)(=O)c1cccs1)c1ccc(C(F)(F)F)cc1` (centres undefined), `Cc1cc(C)cc(NC(=O)CN(c2cccc(C)c2C)S(=O)(=O)c2ccccc2)c1` is lower in inhibition: 7.88% for the first, -5.48% for the second.

First: CCn1cc2nc(SCc3ccccc3)n(Cc3ccc(C)cc3)c(=O)c2n1
Second: COc1ccc(-c2nc(SCCOc3cc(C)ccc3C(C)C)n3[nH]c(=O)cc3n2)cc1
The inhibition of the first is lower: -6.07% for the first, -1.26% for the second.

Compared with `COc1ccc2c(CNCCc3ccccc3OC)c(C(=O)O)n(Cc3ccc(F)cc3Cl)c2c1`, `CCOc1cccc(C2c3[nH]c4ccccc4c3CCN2C(=O)Cc2cccc(OCC)c2OCC)c1` (centres undefined) is higher in inhibition: -15.2% for the first, 1.52% for the second.

Compared with `CSc1cccc(NC(=O)N2CCN(S(=O)(=O)c3ccc4c(ccn4C)c3)CC2)c1`, `O=C(OCC1CCCO1)c1ccc2c(c1)N(Cc1cccc(F)c1)C(=O)c1ccccc1S2(=O)=O` (centres undefined) is lower in inhibition: 23.2% for the first, -3.53% for the second.

First: CC1=C(C(=O)OC2CCCC2)C(c2ccc(Cl)cc2)CC(=O)N1 (centres undefined)
Second: Cc1cc2c(cc1S(=O)(=O)CCC(=O)N(C)Cc1ccccc1)OCC(=O)N2
The inhibition of the first is lower: 0.463% for the first, 13.2% for the second.

Compound `Cc1cc(C)cc(NC(=O)c2cc3c(=O)n(Cc4ccco4)ccc3nc2C)c1` has an inhibition of 4.85%.

With `C=CCOc1ccc(/C=C/C(=O)OCC(=O)NC2CCCCCCC2)cc1` the inhibition was active: 42.6%.
`CC(C)CC(OC(=O)c1nsc(Cl)c1Cl)C(=O)NC1CCCC1` (centres undefined) was tested, and the inhibition was active: 68.8%.
With `CCOc1ccc(CN(C)CC(O)COC(c2ccc(OC)cc2)c2ccc(OC)cc2)cc1` (centres undefined) the inhibition was active: 30.3%.
`O=C(c1ccc(F)cc1)C1CCN(C(=S)Nc2ccc(F)cc2)CC1` was tested, and the inhibition was active: 47.5%.
For `CC/C(=N\NC(N)=O)c1ccc(OC)c(OC)c1`, the inhibition was active: 38.5%.
With `COc1ccc(NC(=O)C2(c3ccc(NC(=O)c4ccc(C)cc4)cc3)CCCC2)cc1` the inhibition was active: 34.2%.
For `O=C(O)CCC(=O)CCC(=O)c1ccccc1`, the inhibition was active: 34.6%.
With `Nc1cc(C(F)(F)F)ccc1Nc1ccccc1` the inhibition was active: 67.1%.
`CN1CCc2c(sc(/N=C/c3cc(Cl)ccc3O)c2C#N)C1` was tested, and the inhibition was active: 83.3%.
In the case of `CCOC(=O)C1=CCN(Cc2ccccc2)CC1`, the inhibition is reported as active: 101%.
In the case of `Cc1nc(=O)c(-c2ccccc2)c(C)n1-c1cccc(C(=O)O)c1`, the inhibition is reported as active: 31.3%.
`CN(CCOc1ccc(Cl)cc1)Cc1cccc(S(=O)(=O)N(C)C)c1` was tested, and the inhibition was active: 48.3%.
In the case of `CCn1cnc2cc(NC(=O)c3ccc(C)cc3)ccc21`, the inhibition is reported as active: 31.5%.
For `Cc1cc(C(C)(C)C)cc(C)c1CC1=NCCN1`, the inhibition was active: 50.1%.
For `COc1ccc(C2CC(c3ccccc3)=NN2C(=O)COC(=O)c2cc(S(=O)(=O)N3CCOCC3)ccc2Cl)cc1` (centres undefined), the inhibition was active: 32.1%.
With `CCN(CCCCOC(=O)c1ccc(OC)c(OC)c1)C(C)Cc1ccc(OC)cc1` (centres undefined) the inhibition was active: 43.6%.
With `O=C(c1n[nH]c2ccccc12)N1CCOCC1` the inhibition was active: 38.5%.
With `C#Cc1ccc(CN2CCC(Oc3ccc(C(=O)NCc4ccccn4)cc3)CC2)cc1` the inhibition was active: 36.4%.
In the case of `CCOC(=O)C1=C(C)NC(=S)N(C(C)=O)C1c1ccccc1` (centres undefined), the inhibition is reported as active: 32.1%.
`Cc1cc(-c2ccc(C)c(S(=O)(=O)NCCCN3CCN(c4ccccc4)CC3)c2)on1` was tested, and the inhibition was active: 73.4%.
